Results are given in words; binding and its absence hold for the method and conditions named. Binding seen in cells or lysates may run through a third protein. Some binding calls cover weakened binding; strength is not graded here.

Amino acid sequences for entries named in this document (tags omitted).
UniProt Q9Y496: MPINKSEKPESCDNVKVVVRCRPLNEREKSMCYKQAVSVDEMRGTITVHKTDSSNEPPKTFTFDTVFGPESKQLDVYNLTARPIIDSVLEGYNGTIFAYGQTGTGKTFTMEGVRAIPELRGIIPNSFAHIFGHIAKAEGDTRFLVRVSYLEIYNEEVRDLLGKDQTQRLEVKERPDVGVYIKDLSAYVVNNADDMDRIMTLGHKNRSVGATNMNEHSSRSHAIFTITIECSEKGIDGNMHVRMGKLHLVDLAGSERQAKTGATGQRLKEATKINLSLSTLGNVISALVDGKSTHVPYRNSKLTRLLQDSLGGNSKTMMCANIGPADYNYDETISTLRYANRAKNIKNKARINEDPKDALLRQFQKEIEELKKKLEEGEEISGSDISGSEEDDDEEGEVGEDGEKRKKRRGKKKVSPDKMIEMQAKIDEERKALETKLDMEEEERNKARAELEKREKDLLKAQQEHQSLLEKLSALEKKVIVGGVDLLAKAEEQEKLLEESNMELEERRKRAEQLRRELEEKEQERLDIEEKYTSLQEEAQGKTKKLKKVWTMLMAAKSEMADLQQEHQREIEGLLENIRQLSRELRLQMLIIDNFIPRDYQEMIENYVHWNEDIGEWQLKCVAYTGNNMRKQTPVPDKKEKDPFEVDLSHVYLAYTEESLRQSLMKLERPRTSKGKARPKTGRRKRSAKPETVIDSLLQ
UniProt Q96T51: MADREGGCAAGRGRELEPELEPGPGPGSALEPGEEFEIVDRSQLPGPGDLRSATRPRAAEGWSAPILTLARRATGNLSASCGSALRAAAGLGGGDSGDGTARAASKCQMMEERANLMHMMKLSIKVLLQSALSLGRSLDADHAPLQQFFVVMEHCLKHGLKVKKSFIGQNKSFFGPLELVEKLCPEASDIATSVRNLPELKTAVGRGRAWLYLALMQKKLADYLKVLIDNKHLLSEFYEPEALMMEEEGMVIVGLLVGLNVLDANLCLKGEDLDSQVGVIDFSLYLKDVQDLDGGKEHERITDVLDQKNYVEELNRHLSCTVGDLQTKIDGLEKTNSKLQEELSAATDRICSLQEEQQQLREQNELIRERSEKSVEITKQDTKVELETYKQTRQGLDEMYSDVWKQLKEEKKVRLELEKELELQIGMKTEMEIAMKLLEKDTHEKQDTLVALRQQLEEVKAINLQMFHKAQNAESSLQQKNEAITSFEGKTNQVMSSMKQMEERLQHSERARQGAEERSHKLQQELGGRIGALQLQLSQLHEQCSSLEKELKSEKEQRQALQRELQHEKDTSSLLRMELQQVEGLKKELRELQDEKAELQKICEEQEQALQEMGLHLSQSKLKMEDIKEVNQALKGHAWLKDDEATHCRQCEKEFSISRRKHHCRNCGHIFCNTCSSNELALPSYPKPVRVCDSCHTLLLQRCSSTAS

For one assay, the target named is Myc–KIF3A (UniProt Q9Y496). The experiment in a line: co-IP; Myc-tagged bait expressed in HeLa cells, anti-Myc antibody and Protein G–Sepharose 4B beads overnight at 4°C; immunoblotting of endogenous partners. For orientation: Immunoblotting shows a protein as a band on a membrane.
In another assay the target is GFP–Rabip4′ (UniProt Q96T51). Put plainly: co-IP; GFP-tagged bait expressed in HeLa cells, lysate (20 mM HEPES pH7.4, 100 mM KCl, 10 mM MgCl2, 5 mM EDTA, 1% Triton X-100, 100 µM GTPγS) on GFP-Trap_A beads 4–5 h at 4°C; immunoblotting of endogenous partners.

B1: rabenosyn-5 (endogenous, HeLa) (protein, UniProt Q9H1K0 1-784)
chain: MASLDDPGEVREGFLCPLCLKDLQSFYQLHSHYEEEHSGEDRDVKGQIKSLVQKAKKAKDRLLKREGDDRAESGTQGYESFSYGGVDPYMWEPQELGAVRSHLSDFKKHRAARIDHYVVEVNKLIIRLEKLTAFDRTNTESAKIRAIEKSVVPWVNDQDVPFCPDCGNKFSIRNRRHHCRLCGSIMCKKCMELISLPLANKLTSASKESLSTHTSPSQSPNSVHGSRRGSISSMSSVSSVLDEKDDDRIRCCTHCKDTLLKREQQIDEKEHTPDIVKLYEKLRLCMEKVDQKAPEYIRMAASLNAGETTYSLEHASDLRVEVQKVYELIDALSKKILTLGLNQDPPPHPSNLRLQRMIRYSATLFVQEKLLGLMSLPTKEQFEELKKKRKEEMERKRAVERQAALESQRRLEERQSGLASRAANGEVASLRRGPAPLRKAEGWLPLSGGQGQSEDSDPLLQQIHNITSFIRQAKAAGRMDEVRTLQENLRQLQDEYDQQQTEKAIELSRRQAEEEDLQREQLQMLRERELEREREQFRVASLHTRTRSLDFREIGPFQLEPSREPRTHLAYALDLGSSPVPSSTAPKTPSLSSTQPTRVWSGPPAVGQERLPQSSMPQQHEGPSLNPFDEEDLSSPMEEATTGPPAAGVSLDPSARILKEYNPFEEEDEEEEAVAGNPFIQPDSPAPNPFSEEDEHPQQRLSSPLVPGNPFEEPTCINPFEMDSDSGPEAEEPIEEELLLQQIDNIKAYIFDAKQCGRLDEVEVLTENLRELKHTLAKQKGGTD
With B1, the binding result in the assay with Myc–KIF3A and in the assay with GFP–Rabip4′ was “binds” each time.

The values are drawn from article PMC6151265.
